Measured values reported in PubChem BioAssay AID493208 (National Center for Advancing Translational Sciences (NCATS), 2011).
In all, about 44,000 compounds went through this assay and about 340 (0.77%) were called active. About 5% were inconclusive and are not listed. The call rests on the fitted dose curve; in most records, active means well fitted inhibition curve with a large enough effect; inconclusive means small, poorly fitted or top-dose-only effect; inactive means flat fitted curve, though single readings scatter. The list shows a part of the results.

Assay: Acumen qHTS Assay for Inhibitors of the mTORC1 Signaling Pathway in MEF (Tsc2-/-, p53-/-) Cells: Sytravon;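 further: plate controls were DMSO for no effect and rapamycin for full effect; nearly all actives have a fitted effect of over 50% in size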
Settings: phospho-rpS6 immunofluorescence/PI, 24 h; series mostly up to 38.3 µM; activity change, negative = inhibition: at the top concentration
Procedure, shortened: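 Cell-based qHTS: Tsc2-/- p53-/- MEF, 24 h cpd, 37 °C; fix/perm, anti-phospho-S6 Alexa-488 + PI; Acumen 488 nm scan; pS6/PI ratio, % positive cells; rapamycin 7.5 nM = inhibition ref; PI count = viability.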

Activity change, negative = inhibition, inactive:
O=C(CSCc1ccc(F)cc1)N1CCc2c([nH]c3ccccc23)C1c1ccc(F)cc1 (configuration not stated) -10%
Cc1cc(S(=O)(=O)Nc2cc3c(cc2NCc2ccccc2)n(C)c(=O)n3C)ccc1F 0.523%
Cc1ccc(C)c(Nc2nc(-c3ccccc3)c3cc(Br)ccc3n2)c1 -0.464%
O=C(COc1ccccc1)NCCc1csc(-c2cccc(F)c2)n1 -8.6%
COC(=O)c1cccc(Cn2nnc3sc4c(c3c2=O)CCC(C(C)(C)C)C4)c1 (configuration not stated) 4.14%
COc1ccc(CCNC(=O)CCCCn2c(=O)c3ccccc3n(CC(=O)Nc3ccc(C)cc3C)c2=O)cc1OC 2.94%
CCN1C(=O)C(Cc2nc3ccccc3c(=O)n2-c2ccc(OC)cc2)c2cc(C)ccc21 (configuration not stated) 3.36%
N#Cc1cccc(NC(=O)Cn2nc(Cc3ccncc3)c3ccccc3c2=O)c1 -16.4%
Cc1nnc(N2CCCC(C(=O)Nc3cccc(C(F)(F)F)c3)C2)c2nn(-c3ccccc3)c(C)c12 (configuration not stated) -8.16%
O=C(Nc1cccc(Cl)c1)c1cc(-c2ccc3c(c2)OCCO3)on1 -14.7%
Cc1cccc(N(C)C(CNS(=O)(=O)c2ccccc2)c2ccccc2)c1 (configuration not stated) -4.15%
Cc1cccc(C(=O)Nc2cccc(OCc3cc(=O)n4cccc(C)c4n3)c2)c1 -9.94%
CCN(CC)CCNC(=O)C(=O)NCC(c1cccnc1)N1CCN(c2ccccc2)CC1 (configuration not stated) 0%
Cc1cc(Sc2ccc(Cl)cc2)nc2ccccc12 -0.662%
O=C(CSc1ccccc1)NCc1ccc2c(c1)CCN2C(=O)c1ccc(Cl)cc1 -7.76%
CC(C)(C)OC(=O)N1CCC(c2c(C(=O)NC3CCCCC3)cnn2-c2cccc(F)c2)CC1 -0.992%
Cn1nnnc1SCCNCc1ccc(OCc2ccccc2Cl)cc1 -9.26%
CC(NC(=O)c1ccc(NC(=O)c2nsc3ccccc23)cc1)c1ccccc1 (configuration not stated) 2.42%
Cc1cccc(C(=O)Nc2cccc(C(=O)OCc3cc(=O)n4nc(C(C)C)sc4n3)c2)c1 13%
Cc1ccc(N(C)S(=O)(=O)c2ccc3[nH]c4c(c3c2)CCCC4)cc1 -15.4%
O=C(COc1ccccc1)NCc1ccc2c(c1)CCN2C(=O)c1ccccc1 -12.1%
COC(=O)c1c(NC(=O)Cc2coc3ccc(C)cc23)sc2c1CCC2 4.55%
COc1ccc(-n2nc(C(=O)Nc3ccc(Cl)cn3)c3c4ccccc4n(C)c3c2=O)cc1Cl 0.626%
Cc1ccc(NC(=O)CSc2c3c(nc4ccccc24)CCCC3)cc1F -13.4%
Cc1ccc(CCNC(=O)c2cc(Nc3ccc(C)c(C)c3)nc3ccccc23)cc1 0.591%
CC(C)C1C(=O)Nc2ccc(S(=O)(=O)NCc3ccc(Cl)cc3)cc21 (configuration not stated) 0.297%
COc1ccc(C2C(C(N)=O)=C(C)Nc3nc(CCCO)nn32)cc1 (configuration not stated) -1.82%
